According to the supplement of paper PMC12217912:
The list shows a part of the results. Sequences were assembled here from the parent chain. Values near 0.05 are background.

B1: TEV protease; numbered along this chain (parent)
chain: MGESLFKGPRDYNPISSSICHLTNESDGHTTSLYGIGFGPFIITNKHLFRRNNGTLVVQSLHGVFKVKDTTTLQQHLVDGRDMIIIRMPKDFPPFPQKLKFREPQREERICLVTTNFQTKSMSSMVSDTSCTFPSGDGIFWKHWIQTKDGQCGSPLVSTRDGFIVGIHSASNFTNTNNYFTSVPKNFMELLTNQEAQQWVSGWRLNADSVLWGGHKVFMVKPEEPFQPVKEATQL

Variants of: B1
Assay: raw area under fraction-flipped curve 0-4 h after induction (AUC4h, not background-subtracted), DNA-recorder readout of cleavage of the substrate (dimensionless); higher = more cleavage of the substrate by the protease variant
Conditions: temperature: 34 °C; time window: 0-4 h after rhamnose induction
Procedure: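 In vivo DNA recorder in E. coli TOP10(DE3) ΔrhaA at 34 °C. Each TEVp single-site mutant (parent TEVp 0) is paired with a single-site variant of the 7-mer TEVs (canonical ENLYFQ|S). The substrate sits between flexible linkers in a Bxb1-sfGFP-TEVs-SsrA fusion, so cleavage stabilises Bxb1 and speeds flipping of a recombination array, read by NGS. The value is the raw area under the fraction-flipped curve over 0-4 h after rhamnose induction (AUC4h), with ≥20 reads per time point. It is not background-subtracted; inactive controls average about 0.047.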
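Note: Bxb1 expression induced with 0.2% (w/v) L-rhamnose at OD600 near 0.5, cultures sampled hourly, flipped fraction per protease–substrate barcode pair counted by paired-end Illumina sequencing.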

Variant | area with substrate ENLYFQA | area with substrate ENLYFQC | area with substrate ENLYFQF | area with substrate ENLYFQG | area with substrate ENLYFQH | area with substrate ENLYFQK | area with substrate ENLYFQL | area with substrate ENLYFQN | area with substrate ENLYFQQ | area with substrate ENLYFQS | area with substrate ENLYFQV | area with substrate ENLYFQM | area with substrate ENLYFQT | area with substrate ENLYFQR | area with substrate ENLYFQD | area with substrate ENLYFQI | area with substrate ENLYFQP | area with substrate ENLYFQW | area with substrate ENLYFQY
MGESLFKGPRDYNPISSSICHLTNESDGHTTSLYGIGFGPFIITNKHLFRRNNGTLVVQSLHGVFKVKDTTTLQQHLVDGRDMIIIRMPKDFPPFPQKLKFREPQREERICLVTTNFQTKSMSSMVSDTSCTFPSGDGIFWKHWIQTKDGQCGSPLVSTRDGFIVGIHSASNFTNTNNYFTSVPKNFMELLTHQEAQQWVSGWRLNADSVLWGGHKVFMVKPEEPFQPVKEATQL [N193H] | 0.0762 | 0.0902 | 0.0729 | 0.081 | 0.058 | 0.0715 | 0.071 | 0.0602 | 0.067 | 0.0971 | 0.051 | – | – | – | – | – | – | – | –
MGESLFKGPRDYNPISSSICHLTNESDGHTTSLYGIGFGPFIITNKHLFRRNNGTLVVQSLHGVFKVKDTTTLQQHLVDGRDMIIIRMPKDFPPFPQKLKFREPQREERICLVTTNFQTKSMSSMVSDTSCTFPSGDGIFWKHWIQTKDGQCGSPLVSTRDGFIVGIHSASNFTNTNNYFTSVPKNFMELLTFQEAQQWVSGWRLNADSVLWGGHKVFMVKPEEPFQPVKEATQL [N193F] | 0.0622 | – | 0.0724 | – | 0.0419 | 0.0373 | 0.0596 | – | – | 0.086 | – | 0.0813 | 0.0322 | – | – | – | – | – | –
MGESLFKGPRDYNPISSSICHLTNESDGHTTSLYGIGFGPFIITNKHLFRRNNGTLVVQSLHGVFKVKDTTTLQQHLVDGRDMIIIRMPKDFPPFPQKLKFREPQREERICLVTTNFQTKSMSSMVSDTSCTFPSGDGIFWKHWIQTKDGQCGSPLVSTRDGFIVGIHSASNFTNTNNYFTSVPKNFMELLTNQWAQQWVSGWRLNADSVLWGGHKVFMVKPEEPFQPVKEATQL [E195W] | 0.0846 | – | – | – | 0.0725 | 0.0572 | – | – | – | 0.0856 | – | 0.0693 | 0.0754 | 0.0633 | – | – | – | – | –
MGESLFKGPRDYNPISSSICHLTNESDGHTTSLYGIGFGPFIITNKHLFRRNNGTLVVQSLHGVFKVKDTTTLQQHLVDGRDMIIIRMPKDFPPFPQKLKFREPQREERICLVTTNFQTKSMSSMVSDTSCTFPSGDGIFWKHWIQTKDGQCGSPLVSTRDGFIVGIHSASNFTNTNNYFTSVPKNFMELLTNQQAQQWVSGWRLNADSVLWGGHKVFMVKPEEPFQPVKEATQL [E195Q] | 0.074 | – | – | – | – | – | – | 0.0733 | – | 0.0998 | – | – | 0.0637 | – | 0.0543 | 0.0605 | 0.0564 | 0.0654 | –
MGESLFKGPRDYNPISSSICHLTNESDGHTTSLYGIGFGPFIITNKHLFRRNNGTLVVQSLHGVFKVKDTTTLQQHLVDGRDMIIIRMPKDFPPFPQKLKFREPQREERICLVTTNFQTKSMSSMVSDTSCTFPSGDGIFWKHWIQTKDGQCGSPLVSTRDGFIVGIHSASNFTNTNNYFTSVPKNFMELLTNQIAQQWVSGWRLNADSVLWGGHKVFMVKPEEPFQPVKEATQL [E195I] | 0.0835 | – | 0.0872 | – | – | 0.0428 | 0.0387 | 0.0679 | – | 0.085 | – | – | 0.0724 | 0.0609 | – | – | – | 0.0572 | –
MGESLFKGPRDYNPISSSICHLTNESDGHTTSLYGIGFGPFIITNKHLFRRNNGTLVVQSLHGVFKVKDTTTLQQHLVDGRDMIIIRMPKDFPPFPQKLKFREPQREERICLVTTNFQTKSMSSMVSDTSCTFPSGDGIFWKHWIQTKDGQCGSPLVSTRDGFIVGIHSASNFTNTNNYFTSVPKNFMELLTNQEAQQTVSGWRLNADSVLWGGHKVFMVKPEEPFQPVKEATQL [W199T] | 0.0643 | 0.0747 | – | – | – | 0.0634 | – | 0.0517 | – | 0.0676 | – | 0.0693 | – | 0.0572 | 0.0676 | 0.0686 | 0.0548 | – | 0.0574
MGESLFKGPRDYNPISSSICHLTNESDGHTTSLYGIGFGPFIITNKHLFRRNNGTLVVQSLHGVFKVKDTTTLQQHLVDGRDMIIIRMPKDFPPFPQKLKFREPQREERICLVTTNFQTKSMSSMVSDTSCTFPSGDGIFWKHWIQTKDGQCGSPLVSTRDGFIVGIHSASNFTNTNNYFTSVPKNFMELLTNQEAQQAVSGWRLNADSVLWGGHKVFMVKPEEPFQPVKEATQL [W199A] | 0.0603 | 0.0723 | – | 0.0593 | 0.047 | 0.0757 | – | 0.0667 | 0.0509 | 0.0654 | 0.0122 | 0.0422 | – | 0.0581 | 0.0617 | 0.0432 | – | – | –
MGESLFKGPRDYNPISSSICHLTNESDGHTTSLYGIGFGPFIITNKHLFRRNNGTLVVQSLHGVFKVKDTTTLQQHLVDGRDMIIIRMPKDFPPFPQKLKFREPQREERICLVTTNFQTKSMSSMVSDTSCTFPSGDGIFWKHWIQTKDGQCGSPLVSTRDGFIVGIHSASNFTNTNNYFTSVPKNFMEVLTNQEAQQWVSGWRLNADSVLWGGHKVFMVKPEEPFQPVKEATQL [L190V] | 0.0927 | 0.14 | – | – | 0.0827 | – | – | 0.0428 | – | 0.11 | 0.0615 | – | – | 0.0515 | 0.0485 | – | – | 0.0764 | –
MGESLFKGPRDYNPISSSICHLTNESDGHTTSLYGIGFGPFIITNKHLFRRNNGTLVVQSLHGVFKVKDTTTLQQHLVDGRDMIIIRMPKDFPPFPQKLKFREPQREERICLVTTNFQTKSMSSMVSDTSCTFPSGDGIFWKHWIQTKDGQCGSPLVSTRDGFIVGIHSASNFTNTNNYFTSVPKNFMEKLTNQEAQQWVSGWRLNADSVLWGGHKVFMVKPEEPFQPVKEATQL [L190K] | 0.104 | 0.1 | 0.0645 | – | – | – | 0.063 | 0.0781 | – | 0.103 | 0.0625 | – | 0.0608 | 0.054 | 0.0703 | 0.0522 | – | 0.0608 | 0.0738
MGESLFKGPRDYNPISSSICHLTNESDGHTTSLYGIGFGPFIITNKHLFRRNNGTLVVQSLHGVFKVKDTTTLQQHLVDGRDMIIIRMPKDFPPFPQKLKFREPQREERICLVTTNFQTKSMSSMVSDTSCTFPSGDGIFWKHWIQTKDGQCGSPLVSTRDGFIVGIHSASNFTNTNNYFTSVPKNFMELLTNQEAQQWVTGWRLNADSVLWGGHKVFMVKPEEPFQPVKEATQL [S201T] | 0.132 | 0.144 | – | – | 0.109 | – | 0.0382 | – | – | 0.123 | – | – | 0.0584 | 0.0561 | – | 0.0602 | 0.0595 | 0.065 | –
MGESLFKGPRDYNPISSSICHLTNESDGHTTSLYGIGFGPFIITNKHLFRRNNGTLVVQSLHGVFKVKDTTTLQQHLVDGRDMIIIRMPKDFPPFPQKLKFREPQREERICLVTTNFQTKSMSSMVSDTSCTFPSGDGIFWKHWIQTKDGQCGSPLVSTRDGFIVGIHSASNFTNTNNYFTSVPKNFMELLTNQEAQQWVMGWRLNADSVLWGGHKVFMVKPEEPFQPVKEATQL [S201M] | 0.0835 | 0.11 | – | 0.14 | – | 0.0678 | – | 0.0809 | 0.0677 | 0.0968 | – | – | – | 0.0651 | 0.0632 | – | – | – | 0.0535
